Experimental data reported in PubChem BioAssay AID488969 (Vanderbilt High Throughput Screening Facility, 2010).
Whole data set: some 110,000 compounds, median “z-score” near -0.1, cut for the highest 2% near 2. The list shows a part of the results.

biological target: Metabotropic glutamate receptor 8 (Rattus norvegicus) (UniProt P70579); assay: mGluR8 Gi/Go-coupled signaling modulation – cell-based, rat, thallium flux, HTS, primary screen (AID 488969); conditions: HEK293 rat mGluR8, GIRK (G protein-gated inwardly rectifying potassium channel) thallium flux, FluoZin2; at 10 µM; stronger effect = higher value; submaximal glutamate (EC20) added with thallium
UniProt P70579, sequence (P70579 whole entry, looked up): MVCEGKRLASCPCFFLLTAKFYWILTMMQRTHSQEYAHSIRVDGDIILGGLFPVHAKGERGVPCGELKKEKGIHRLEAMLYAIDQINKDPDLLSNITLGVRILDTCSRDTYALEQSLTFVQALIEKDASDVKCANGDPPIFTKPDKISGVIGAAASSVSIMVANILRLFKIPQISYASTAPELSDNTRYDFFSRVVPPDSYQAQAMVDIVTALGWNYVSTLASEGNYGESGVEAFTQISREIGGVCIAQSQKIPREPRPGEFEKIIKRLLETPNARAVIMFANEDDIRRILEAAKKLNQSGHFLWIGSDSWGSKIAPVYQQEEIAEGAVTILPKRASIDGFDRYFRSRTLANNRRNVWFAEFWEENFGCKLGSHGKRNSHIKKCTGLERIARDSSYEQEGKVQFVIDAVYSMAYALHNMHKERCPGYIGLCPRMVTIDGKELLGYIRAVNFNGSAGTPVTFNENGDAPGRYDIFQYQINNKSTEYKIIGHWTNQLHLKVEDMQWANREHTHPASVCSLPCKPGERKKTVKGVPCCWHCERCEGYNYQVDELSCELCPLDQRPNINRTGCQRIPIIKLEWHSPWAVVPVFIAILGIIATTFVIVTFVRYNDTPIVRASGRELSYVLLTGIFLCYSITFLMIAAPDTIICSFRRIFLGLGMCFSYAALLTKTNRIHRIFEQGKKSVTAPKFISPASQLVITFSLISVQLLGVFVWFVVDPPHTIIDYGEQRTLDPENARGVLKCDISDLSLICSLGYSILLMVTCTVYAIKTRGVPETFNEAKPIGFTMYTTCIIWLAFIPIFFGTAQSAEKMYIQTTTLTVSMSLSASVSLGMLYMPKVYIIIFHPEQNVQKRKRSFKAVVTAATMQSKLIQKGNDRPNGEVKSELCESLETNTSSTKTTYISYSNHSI

Compound	z-score
FC(F)(F)c1cccc(Sc2nc(-c3ccccc3)nnc2C(F)(F)F)c1	0.0555
NC(=O)C1CNc2ccccc2O1 (stereo not given)	2.79
CCOC(=O)c1[nH]c(COC(=O)CCOc2ccccc2OC)c(C(=O)OCC)c1C	-0.212
COc1cccc(N2CCN(C3CC(=O)N(c4ccc(F)c(Cl)c4)C3=O)CC2)c1 (stereo not given)	-0.0211
Cc1ccc(NC(=O)C2CCCN2S(=O)(=O)c2cccc3cccnc23)cc1F (stereo not given)	2.9
N#Cc1cccc(N=Cc2c(O)ccc3ccccc23)c1	-0.114
O=C(NC(Cc1ccc(F)cc1)C(=O)O)c1ccccc1 (stereo not given)	-0.211
O=C(CSc1ccc(Cl)cc1)N1CCC(c2nc3ccccc3s2)CC1	0.346
COc1ccccc1C(=O)NN1C(=O)C2C3C=CC(O3)C2C1=O (stereo not given)	0.0263
Cc1ccc(Sc2nc(-c3ccccc3)ccc2C#N)cc1	-0.78
O=C(c1nc2ncccn2n1)N1CCN(c2ccc(F)cc2)CC1	-0.106
O=C(Nc1ccc(F)cc1)c1ccccc1CC[N+](=O)[O-]	0.596
O=c1c2ccccc2nc(N/N=C/c2ccc(O)cc2)n1O	-0.0395
N#Cc1c(N)nc2c(c1-c1ccco1)CCCCC2	0.613
O=C(O)C1CC(=O)N(c2ccc3c(c2)OCCO3)C1 (stereo not given)	-0.0902
CC(C)C(=O)Nc1ccc(C(=O)c2ccccc2)cc1	-0.299
Cc1ccc(NC(=O)Cn2c(=O)n(Cc3ccco3)c(=O)c3ccccc32)c(C)c1	-0.0769
COc1ccc(N(C(=O)c2ccn[nH]2)C(C(=O)NC(C)(C)C)c2ccc(F)cc2)cc1 (stereo not given)	-0.126
CCC1CCCCN1S(=O)(=O)c1ccc(S(=O)(=O)N(Cc2cccs2)C2CC2)cc1 (stereo not given)	0.569
Cc1ccc(NC(=S)NNC(=O)c2nn(C)c(C)c2Cl)cc1	-0.106
Cc1ccc(CNC(=O)C2CCCN2C(=O)NCc2ccccc2)cc1 (stereo not given)	0.822
COc1ccc(NC(=O)CN2C(=O)C(c3ccccc3)=NC23CCCCCC3)cc1	0.328

Compound	z-score
Cc1ccc(-n2c(=O)c3ccc(C(=O)NCc4ccco4)cc3n(Cc3ccccc3C#N)c2=O)cc1	-0.251
CCOC(=O)c1cc(-c2ccc(Cl)cc2)nc2onc(C)c12	-0.423
O=C(O/N=C1\CCCc2ccccc21)c1ccc(F)cc1	-0.0145
CCOC(=O)/C=C/C(=O)N1CCc2ccccc21	-0.242
Nc1cc(=O)nc(SCc2ccccc2)n1Cc1ccco1	-1.15
Cc1nc(CCNC(=O)COc2ccccc2)cs1	-0.509
Cc1ccc(NC(=O)c2oc3ccccc3c2NC(=O)c2ccc3c(c2)OCO3)cc1	-0.28
Cc1csc(Sc2ccc([N+](=O)[O-])cc2C(=O)OCC(=O)NC2CCCC(C)C2C)n1 (stereo not given)	0.0376
CSc1nc(Sc2ccccc2Cl)c2ccccc2n1	-0.101
COc1ccc(NC(=O)COC(=O)c2ccc(OCc3c(C)noc3C)cc2)cc1OC	0.107
CS/C(=C\[N+](=O)[O-])Nc1ccccc1	-0.76
CCc1nc(OCC(=O)c2ccccc2)c(C#N)c2c1COC(C)(C)C2	-0.0279
FC(F)(F)c1nc2nncn2c2c1CCCCC2	-0.228
COc1cc2c(cc1OC)CN(c1nc(CN3CCCCC3)nc3sc4c(c13)CCCC4)CC2	-0.149
CC(=O)Nc1ccc(N(CC(O)Cn2c3ccccc3c3ccccc32)S(=O)(=O)c2ccc(C)cc2)cc1 (stereo not given)	-0.159
Cc1[nH]n(-c2ccc([N+](=O)[O-])cc2)c(=O)c1C=NCCN1CCN(C(=O)c2ccc(F)cc2)CC1	-0.563
COc1cccc(NS(=O)(=O)c2ccc3c(c2)CCCN3C(C)=O)c1	0.213
CC1=CC(C)(C)N(C(=O)CSc2nnc(C)s2)c2ccc(C)cc21	-0.304
O=C1CC(N(Cc2cccs2)C(=O)Nc2ccccc2)C(=O)N1c1ccc(Cl)cc1 (stereo not given)	-0.102
CCOC(=O)CNC(=O)c1sc2ncnc(N3CCc4ccccc4C3)c2c1C	-0.962
O=C(CSC1CC(=O)N(CC(c2ccccc2)c2ccccc2)C1=O)Nc1ccc(Cl)cc1 (stereo not given)	0.0431
CCN(CC)CCCOc1ccc(Cl)c(Cl)c1	0.523

Compound	z-score
CCOc1cc(C2C(C(=O)N3CCCCC3)=C(C)NC3=C2C(=O)CC(C)(C)C3)ccc1O (stereo not given)	0.026
CCOC(=O)N1CCN(c2cc(=O)n(-c3ccc(OCC)cc3)c(=O)[nH]2)CC1	-0.000123
CNC(=O)c1ccc(Oc2ccc(C(=O)NC)cc2)cc1	-0.0105
CC(C)C(=O)Nc1ccc(NC(=O)c2ccccc2Cl)nc1	-0.115
CCc1nnc(NC(=O)CSc2ncnc3scc(-c4ccc(C)cc4)c23)s1	0.0303
Cc1cc(C(=O)Nn2c(C3CCCCC3)nc3ccccc3c2=O)ccc1[N+](=O)[O-]	0.924
CCCC(c1nnnn1CC1CCCO1)N1CCN(c2cc(Cl)ccc2C)CC1 (stereo not given)	-0.0991
Cn1ccnc1SCC(=O)Nc1cc(C(F)(F)F)ccc1N1CCOCC1	-0.568
C=CCSc1cc(C)nc2c(-c3ccc(Cl)cc3)c(C)nn12	-0.522
O=[N+]([O-])c1ccc(/C=N\N2CCN(c3ccc(Cl)cc3)CC2)cc1	-0.325
O=Cc1cnc(N2CCOCC2)nc1	-0.0597
Clc1cccc(N/N=C(\Cc2nc3ccccc3[nH]2)c2ccccc2)c1	0.0568
CCOC(=O)c1ccccc1NC(=O)CSc1nnnn1C1CCCCC1	0.716
c1ccc2c(c1)ncn2CCN1CCCCC1	0.0727
CC1=C(C)CS(=O)N(S(=O)(=O)c2ccccc2)C1 (stereo not given)	0.26
COc1ccc(C2C(C(=O)OCC3CCCO3)=C(C)NC3=C2C(=O)CC(c2ccco2)C3)cc1O (stereo not given)	-0.38
CCOc1ccc(-n2nnnc2SCC(=O)N2CCOCC2)cc1	-0.126
COCCN1CN=C(Nc2nc3ccccc3s2)NC1	-0.137
Cc1cc(=O)[nH]c(SCC(=O)Nc2ccc(S(=O)(=O)N3CCOCC3)cc2)n1	-0.0702
CC(C)NC(=O)c1cc2cc(Br)ccc2oc1=O	-0.497
Cc1ccc(C(=O)c2c[nH]c(C(=O)NCCCN3CCOCC3)c2)cc1	-0.221
COc1ccc(Cc2nnc(SCC(=O)c3ccc(OC)cc3)o2)cc1	-0.98

Compound	z-score
CCOC(=O)NC(NS(=O)(=O)c1ccccc1)(C(=O)OCC)C(F)(F)F (stereo not given)	0.0224
CCOC(=O)c1ccc(NC(=S)NCCC2=CCCCC2)cc1	-0.19
COc1ccc(N2CCN(C(=O)CCNS(=O)(=O)c3cccs3)CC2)cc1	-0.35
O=C(/C=C/c1ccccc1)N/C(=C/c1ccccc1)C(=O)N1CCCCC1	-0.109
O=C(OCc1nc2scc(-c3ccccc3)c2c(=O)[nH]1)c1cccc([N+](=O)[O-])c1	0.666
Cc1ccccc1OCC(=O)OCC(=O)c1ccc(-c2ccccc2)cc1	-0.0383
O=C(N/N=C/c1cccc(C(F)(F)F)c1)c1cc2c(s1)-c1ccccc1CC2	-0.0383
CCOc1ccccc1N(C(=O)c1ccco1)C(C(=O)NC1CCCC1)c1cccnc1 (stereo not given)	-0.287
CCOc1cc(C)c(-c2onc(C(F)(F)F)c2-c2csc(C)n2)c(O)c1	-0.697
S=C(NCc1cccs1)Nc1ccccc1	-0.293
Cc1cc(C(C)(C)C)oc1C(=O)N(CC(=O)NC1CCCC1)Cc1ccc(Cl)cc1	0.163
CCC12CN3CC(CC)(CN(C1)C3c1c(O)ccc3ccccc13)C2=O (stereo not given)	-0.25
Cc1noc(C)c1C(=O)Nc1ccc2c(c1)CCC2	-0.0214
Cn1ncc2nnn(-c3ccccc3)c(=O)c21	-0.44
COc1ccc(/C=N/c2c(-c3ccco3)nc3ccccn23)cc1OC	-0.603
CCOc1cc(N2CCOCC2)c(OCC)cc1NC(=O)CC12CC3CC(CC(C3)C1)C2	0.741
Cc1cc(N2C(=O)C=CC2=O)c([N+](=O)[O-])cc1C	0.497
CCCC1CCc2c(c3ccccc3[nH]c2=O)O1 (stereo not given)	0.709
CC(C)C(NC(=O)c1ccco1)C(=O)NCC(c1ccco1)N1CCCCC1 (stereo not given)	-0.238
O=C(Nc1cc(Cl)c(O)c(Cl)c1)C1CCCO1 (stereo not given)	0.322
Nc1sc(-c2ccccc2)cc1C(=O)O	1.07
C(=N\n1cnnc1)/C1CCCCC1	-0.0189

Compound	z-score
O=C(Cn1cc2c(n1)CCCC2)NCCc1ccccc1	0.294
Cc1ccc(Cn2ccc(NC(=O)c3cc(-c4ccc5c(c4)OCO5)on3)n2)cc1	-0.762
CC1=C(C(=O)OC2CCCCC2)C(c2ccc(C)o2)C2=C(CC(C)(C)CC2=O)N1 (stereo not given)	0.464
COc1ccc(N(CC(=O)N2CCCCCC2)S(=O)(=O)c2c(C)[nH]c(=O)[nH]c2=O)cc1	-0.21
CCN(CC)CCCNC(=O)c1cc(Sc2nnc(C)s2)nc2ccccc12	-0.71
O=C(CCN1C(=O)c2ccncc2C1=O)Nc1ccc(F)cc1	0.269
CCCN1CCN(C(=O)C2CCN(S(=O)(=O)c3ccc4c(c3)oc(=O)n4C)CC2)CC1	0.466
O=[N+]([O-])c1ccccc1S(=O)(=O)Oc1ccc(/C=N/n2cnnc2)cc1	-0.274
CCC(C)NC(=O)c1ccccc1C(=O)NC(C)CC (stereo not given)	0.631
O=C(C1=C(O)C(=O)N(Cc2ccco2)C1c1cccnc1)c1cc2ccccc2o1 (stereo not given)	-0.567
O=C(Nc1ccc(S(=O)(=O)N2CCCC2)cc1Cl)C1=COCCO1	-0.178
COc1cc(C(=O)Nc2ccccn2)cc(OC)c1OC	0.165
C=CCOC(=O)COc1ccc2c(C)c(CC)c(=O)oc2c1	-1.65
O=C(NC1CCCCC1)NC1CC2CCC(C1)N2C(=O)NCc1ccccc1 (stereo not given)	-1.66
CC(=O)Nc1ccc(/C=N/OCC(=O)Nc2ccc(C)cc2)cc1	0.00813
CCCCN=CC1=C(O)C(C(=O)OC)C(C)(C)CC1=O (stereo not given)	-0.348
COc1ccc(Br)cc1CNC(=O)C1CCCN(c2nc3ccccc3o2)C1 (stereo not given)	-0.0171
Cc1c(C(=O)NCc2ccccc2)c(-c2ccccc2)nn1-c1ccccc1	-0.287
COc1cccc(C(=O)Nc2ccc(NC(C)=O)cc2)c1	-0.121
Cc1cc[n+](-c2[nH]c(=O)sc2/C=N/NC(=O)c2ccccc2[O-])cc1C	-0.403
COc1cccc(/C=N/NC(=O)C(=O)N2CCCC2)c1O	-0.494
CC(Sc1nnc2c(n1)C1CCC2(C)C1(C)C)C(=O)Nc1ccccc1 (stereo not given)	-0.186
